Article PMC6451091
This is one part of the list. For part of these data: At the low end of the ranking, values are background and their order means little. For part of these data: Measured with an extract: partners may take part in the binding.

Key:
Settings in all cases: 20 mM HEPES pH 7.9, 100 mM NaCl, 1 mM DTT, 0.2 mg/mL BSA, 0.02% Triton X-100, 2% milk, 0.4 mg/mL salmon testes DNA; 1 h; temperature not stated; high values mean tight binding; double strand, one strand shown; sequences stand for … in GCCTAGCAC…GTGCTAGGTCTTGATTCGCTTGACGCTGCTG
PU.1 (IVT) = PU.1 (IVT) (UniProt P17947); assay: protein-binding microarray (PBM)
[1] = molecular target: PU.1 (endogenous, THP-1 nuclear extract) (UniProt P17947); assay: nuclear extract protein-binding microarray (nextPBM)
[2] = molecular target: T1, FLI1 (endogenous, THP-1 nuclear extract) (UniProt Q01543); assay: as above
T1 sequence: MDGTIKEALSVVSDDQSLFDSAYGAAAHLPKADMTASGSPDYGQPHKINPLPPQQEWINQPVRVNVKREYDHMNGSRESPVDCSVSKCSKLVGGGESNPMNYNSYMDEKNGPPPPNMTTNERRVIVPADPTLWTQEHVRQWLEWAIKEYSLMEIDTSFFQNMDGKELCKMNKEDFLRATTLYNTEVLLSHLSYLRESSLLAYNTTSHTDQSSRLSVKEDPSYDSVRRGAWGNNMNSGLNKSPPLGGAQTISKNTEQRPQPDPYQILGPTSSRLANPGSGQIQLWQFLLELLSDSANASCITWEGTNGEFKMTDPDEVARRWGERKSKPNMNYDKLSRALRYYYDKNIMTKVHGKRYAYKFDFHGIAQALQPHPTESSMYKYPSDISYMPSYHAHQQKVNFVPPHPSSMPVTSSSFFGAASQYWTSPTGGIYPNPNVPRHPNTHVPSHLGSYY

| Sequence | binding signal (PU.1 (IVT)) [z-score] | binding signal [1] [z-score] | binding signal [2] [z-score] |
| --- | --- | --- | --- |
| CCTGGGAGGAAGTGGAGAGA | 2.99 | 3.03 | 2.5 |
| AGAATGGGGAAGTCACTAAC | 6.3 | 6.52 | 2.48 |
| GGAAAGGGGAAGTGTGCCAT | 7.33 | 7.02 | 3.39 |
| CTGCCAGGGAAGTACTGTGA | 1.1 | 1.28 | 0.0985 |
| CGAAAGCGGAAGTGCTAAAC | 7.81 | 7.45 | 5.56 |
| ACAAAGAGGAAGTGAAGGGA | 6.77 | 6.66 | 3.63 |
| ACAATGAGGAAGTGCTGGCC | 6.19 | 6.74 | 2.67 |
| TGTTTGAGGAACTGAAATAG | 3.85 | 3.82 | 1.12 |
| GAAAGGAGGAAGTGGAGGGT | 5.92 | 6.16 | 3.14 |
| TGCAGAGGGAAGTGCCTGGG | 2.62 | 2.87 | 1.38 |
| GAAGAGAGGAAGTACTGCCT | 5.12 | 4.99 | 2.7 |
| TGAAAGAGGAAGTGCACCCA | 7.26 | 7.33 | 3.53 |
| AAAAAGAGGATGTGAAATAA | 4.21 | 4.21 | 1.92 |
| GGAATGGGGAAGTGGAGAGG | 6.1 | 6.59 | 2.4 |
| TAAAAGAGGAAATGAGAAAC | 5.33 | 5.68 | 3.01 |
| GGAAAAGGGAAGTGAGGTAC | 5.93 | 6.33 | 2.71 |
| ACAAAAAGGAACTGGCTAGA | 2.26 | 1.99 | 0.762 |
| GCTAGGAGGAAGTGGCAAGA | 4.16 | 4.82 | 2.81 |
| AAAAACAGGAAGTGGGGTGC | 7.66 | 7.16 | 5.26 |
| TCCTGGAGGAAGTGATGCTG | 2.92 | 2.79 | 2.33 |
| CAAATGAGGAACTAATGCGG | 6.94 | 6.66 | 3.32 |
